# In PMC4336329 (PLoS ONE, 2015):
# Hit rate of the full screen: of about 310,000 compounds, about 2,200 (0.71%) showed an effect of 50% or more. The effect is printed as a negative number. The list shows a part of the results.
# Molecular target: human ether-à-go-go-related gene (hERG) potassium channel (human, UniProt Q12809)
# Assay: primary screen, population patch clamp on CHO cells stably expressing hERG
# Chain of human ether-à-go-go-related gene (hERG) potassium channel (Q12809 whole entry, looked up): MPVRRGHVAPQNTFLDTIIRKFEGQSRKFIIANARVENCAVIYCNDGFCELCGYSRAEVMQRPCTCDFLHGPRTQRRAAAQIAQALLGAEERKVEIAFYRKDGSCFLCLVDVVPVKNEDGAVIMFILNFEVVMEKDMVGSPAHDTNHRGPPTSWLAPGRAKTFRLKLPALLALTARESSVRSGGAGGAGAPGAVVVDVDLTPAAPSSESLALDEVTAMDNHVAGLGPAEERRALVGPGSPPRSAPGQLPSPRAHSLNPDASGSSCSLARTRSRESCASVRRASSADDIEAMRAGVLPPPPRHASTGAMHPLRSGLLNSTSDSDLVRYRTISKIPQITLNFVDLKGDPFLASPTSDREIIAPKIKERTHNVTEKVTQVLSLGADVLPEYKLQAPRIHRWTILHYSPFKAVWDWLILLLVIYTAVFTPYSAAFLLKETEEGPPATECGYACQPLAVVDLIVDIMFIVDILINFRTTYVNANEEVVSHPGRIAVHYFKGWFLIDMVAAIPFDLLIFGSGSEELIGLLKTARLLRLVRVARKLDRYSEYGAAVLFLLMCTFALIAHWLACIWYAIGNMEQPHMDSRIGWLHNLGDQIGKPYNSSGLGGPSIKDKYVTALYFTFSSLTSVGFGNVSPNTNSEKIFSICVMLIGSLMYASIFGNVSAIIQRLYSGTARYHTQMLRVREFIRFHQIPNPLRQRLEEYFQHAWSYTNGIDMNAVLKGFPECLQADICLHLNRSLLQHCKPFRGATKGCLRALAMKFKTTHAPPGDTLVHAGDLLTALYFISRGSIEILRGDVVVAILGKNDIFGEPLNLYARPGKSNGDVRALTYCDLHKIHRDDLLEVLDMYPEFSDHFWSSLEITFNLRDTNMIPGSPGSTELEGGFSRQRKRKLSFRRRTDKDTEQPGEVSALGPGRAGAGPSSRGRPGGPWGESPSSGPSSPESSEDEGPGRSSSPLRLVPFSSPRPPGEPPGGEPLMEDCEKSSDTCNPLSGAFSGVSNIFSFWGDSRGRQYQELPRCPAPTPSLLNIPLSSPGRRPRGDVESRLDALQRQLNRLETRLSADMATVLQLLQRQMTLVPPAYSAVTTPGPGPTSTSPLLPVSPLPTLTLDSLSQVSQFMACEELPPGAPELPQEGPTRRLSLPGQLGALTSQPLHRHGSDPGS
row,Compound,"hERG current change (%, negative = inhibition) at 1uM"
1,O=[N+]([O-])c1ccc(Sc2nnnn2-c2ccccc2)c(Cl)c1,-29.8%
2,CN1CCN(c2ncnc3nc[nH]c23)CC1,16.9%
3,COC(=O)/C(C(C)=O)=C(/C=C/C=C/N(C)C)N(C)C,12.9%
4,Cc1ccc(-n2nnnc2SCC(=O)NC(C(=O)O)(c2ccccc2)c2ccccc2)cc1C,13.1%
5,COc1ccc(-c2ccc(C)cc2)cc1[C@H]1[C@@H]2C=CCC[C@@]2(C)C(=O)N1Cc1ccccc1,10.9%
6,O=C(O)C[C@H]1c2cc(F)ccc2S(=O)(=O)N1C1CCCCC1,12.2%
7,CC(C)(C)OC(=O)N/N=C/c1cccn1-c1ccc([N+](=O)[O-])cc1,9.32%
8,CS(=O)(=O)N(Cc1ccccc1)c1ccc(C(=O)NCc2cccnc2)cc1,3.21%
9,O=C(NCCNc1ccccc1[N+](=O)[O-])c1cc(F)c(F)cc1Cl,-2.68%
10,COc1ccc(CCNC(=O)c2ccncc2)cc1OC,8.59%
11,Cc1cccc(N2C(=O)NC(=O)/C(=C\c3cnn(-c4ccccc4)c3)C2=O)c1,12.6%
12,COc1ccc(CCNC(=O)c2ccc(=O)[nH]n2)cc1OC,6.01%
13,COc1ccc(CCC(=O)Nc2ccc3c(c2)OCCO3)cc1,4.52%
14,CCOc1ccc(C(=O)NCC2CCCO2)cc1 (stereo not shown),-1.75%
15,O=C(CNC(=O)c1ccc(Br)o1)NCCc1ccc(F)cc1,12.6%
16,COc1ccc(OC)c(/C(C)=N/Nc2ccc(C(=O)O)cc2)c1.O=S(=O)(O)O,7.97%
17,O=C(NN=C1CCCC1)c1ccc(O)cc1,13.5%
18,COc1ccccc1OCC#CCn1ccnc1.O=C(O)C(=O)O,6.59%
19,O=C(COC(=O)c1ccc(S(=O)(=O)N2CCOCC2)cc1)NC1CCCCCC1,10.1%
20,CC(O)[C@H]1CNC(=O)C(=O)N1CCc1cccc2ccccc12 (stereo partly shown),20.1%

row,Compound,"hERG current change (%, negative = inhibition) at 1uM"
1,Cc1ccccc1NC(=O)CSc1nnc(-c2ccccn2)o1,10.6%
2,CCC(C)NC(=O)CC1Oc2ccc(Cl)cc2NC1=O (stereo not shown),12.6%
3,NC(=O)c1oc2ccccc2c1NC(=O)Cc1ccccc1,17.4%
4,Cn1ncc2c(NNC(=O)c3ccc(Cl)c(Cl)c3)ncnc21,0.227%
5,Cc1cccc(-c2nnc(SCC3CNC(=O)O3)n2-c2ccc(Cl)cc2)c1 (stereo not shown),-1.51%
6,O=C(NCc1ccccc1)C1CCC(CNS(=O)(=O)c2cccs2)CC1 (stereo not shown),13.7%
7,Cc1cc(C)c(S(=O)(=O)N2CCN(C(=O)c3ccc(-n4cncn4)c([N+](=O)[O-])c3)CC2)c(C)c1,-14.4%
8,CC(C)CN(C(=O)COC(=O)CNC(=O)c1ccc(Cl)cc1)C1CCS(=O)(=O)C1 (stereo not shown),9.16%
9,COc1ccc(NC(=O)NC23CC4(C)CC(C)(CC(C)(C4)C2)C3)cc1OC,16.6%
10,Cc1c(CC(=O)O)c(=O)oc2cc(OCc3nn[nH]n3)ccc12,4.82%
11,CSc1nnc2ccc(-c3cccs3)nn12,6.02%
12,C[C@H](NC(=O)c1ccccc1)C(=O)OCC(=O)Nc1ccc2c(c1)OCO2,3.98%
13,Cn1c(SCCOc2ccc(Cl)cc2)nnc1-c1ccncc1,-17.6%
14,COc1ccccc1Cn1c(=O)oc2ccc(C)cc21,11.7%
15,COc1ccc(C2C(C(=O)c3ccco3)=C(O)C(=O)N2CC2CCCO2)cc1 (stereo not shown),6.45%
16,C=CCc1cccc2cc(C(=O)N3CCN(C(=O)c4ccco4)CC3)c(=O)oc12,2.68%
17,O=C1CSC(c2cccnc2)N1Cc1ccc(Cl)c(Cl)c1 (stereo not shown),4.43%
18,O=C(/C=C/c1ccccc1[N+](=O)[O-])NCC1CCCO1 (stereo not shown),8.39%
19,CCCOc1ccc(-c2nnn(CC(=O)N3CCCC(C)C3)n2)cc1 (stereo not shown),10.7%
20,CCOC(=O)c1cc2c(=O)n3ccccc3nc2n(Cc2ccccc2)c1=N,-68.9%

row,Compound,"hERG current change (%, negative = inhibition) at 1uM"
1,CCOc1ccc(-c2nn[nH]n2)cc1OCC,8.59%
2,Cc1cc2ccccn2c1C(=O)c1ccc([N+](=O)[O-])o1,6.81%
3,CCNc1nc2c(c(=O)[nH]c(=O)n2C)n1CC(C)C,3.11%
4,Cc1ccc(C(=O)O/N=C(\N)c2ccccn2)c(Cl)c1,13%
5,O=C(OCC(=O)C12CC3CC(CC(C3)C1)C2)c1cnccn1,8.15%
6,CCc1ccccc1N(CC(=O)N1CCc2ccccc2C1)S(C)(=O)=O,11.9%
7,CCCCCn1c(=O)[nH]c2cc(C(=O)NCCc3ccc(OC)c(OC)c3)ccc2c1=O,11.4%
8,C=CCOC(=O)C1=C(C)NC(SC)=C(C#N)C1c1cccs1 (stereo not shown),2.07%
9,CCOC(=O)c1ccc(NC(=O)c2n[nH]c(=O)c3ccccc23)cc1,1.36%
10,CN(C)c1cccc(O)c1,15.7%
11,O=C(CSc1nnc(CNC(=O)c2ccco2)o1)Nc1ccc(F)cc1F,7.44%
12,CCc1ccccc1NC(=O)CSc1nc(C)c(C)o1,6.69%
13,CCN(CC)CCOc1ccc2c(c1)C(=NNC(=O)c1ccccn1)c1cc(OCCN(CC)CC)ccc1-2,3.08%
14,COc1ccc(C(=O)NCCCCCC(=O)O)cc1OC,-5.04%
15,CC(C)c1ccc(N=c2c([N+](=O)[O-])nn(-c3ccc4c(c3)OCCO4)n2O)cc1,12.9%
16,CCCCOC(=O)Nc1ccc(S(=O)(=O)Nc2nccs2)cc1,9.25%
17,COc1cc(OC)cc(C(=O)NCC(=O)OCc2cc(=O)oc3cc(OC)ccc23)c1,19.8%
18,CCN(CC)CCCNC(=O)c1cn(C)c2ccc(S(=O)(=O)N(C)C)cc2c1=O,8.41%
